The record followed here is PubChem BioAssay (Tox21).

The structures appear in SMILES notation. Inconclusive results are not listed. Unless noted, calls follow the shape of the dose curve; as a rule, active = well fitted curve in the direction sought with a large enough effect in the repeat runs; inconclusive = weak or mixed curves; inactive = no such curve, though single readings can be large; an effect the other way counts as inactive or inconclusive. Some structures have more than one record in an assay (separate samples or runs), and their calls can disagree. The source holds more than one record for some entries. This list holds those alone. There may be further records. Values that stand side by side repeat one measurement (runs, samples, wells, individuals or studies). Brackets tell where a record comes from. The letters are not those of the source and start again with each entry.

A short description of assay [1]: qHTS assay for small molecules that induce genotoxicity in human embryonic kidney cells expressing luciferase-tagged ATAD5 - cell viability (AID 651634; calls by dose curve; also: nearly all actives have a fitted effect of over 25% in size). A digest of the protocol:
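Cells (HEK293T, luciferase-tagged ATAD5) are seeded at 2,000 per well, dosed with compound or DMSO vehicle, and incubated 15.5 hr at 37C and 5% CO2. CellTiter-Fluor is added for 30 min before fluorescence is measured.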
In general terms: In qHTS, concentration-response curves come from the screen itself.

Assay [2] in a line: qHTS assay to identify small molecule antagonists of the glucocorticoid receptor (GR) signaling pathway - cell viability counter screen (AID 720693). Also: nearly all actives have a fitted effect of over 55% in size.
Assay [3] in a line: qHTS assay to identify small molecule antagonists of the thyroid receptor (TR) signaling pathway (AID 743065). Also: nearly all actives have a fitted effect of over 55% in size. A digest of the protocol: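 GH3.TRE-Luc rat pituitary cells (two TREs driving luciferase) were dosed with compound, then stimulated with 1 nM T3 (final) for 23.5 h at 37 C. ONE-Glo luminescence was the read-out, with CellTiter-Fluor fluorescence as the cytotoxicity counter-screen.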

Assay [4] can be described thus: A CellTox Green Cytotoxicity Assay to monitor cytotoxicity in HEK293 cells - 24 hour (AID 1224875). Also: nearly all actives have a fitted effect of over 45% in size. A digest of the protocol: (§1)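 Cells (HEK293, 600/well) and dye reagent are dispensed together. After 5 h at 37 C, 23 nL compound is pinned in. Plates stay at 37 C for 40 h with fluorescence read at 0h, 8h, 16h, 24h, 32h and 40h.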
A short description of assay [5]: A CellTox Green Cytotoxicity Assay to monitor cytotoxicity in HEK293 cells - 16 hour (AID 1224888). Also: nearly all actives have a fitted effect of over 35% in size. Put shortly:
as §1

A short description of assay [6]: qHTS assay to identify small molecule antagonists of the progesterone receptor (PR) signaling pathway - cell viability counter screen (AID 1346798). Also: nearly all actives have a fitted effect of over 50% in size. Put shortly:
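Following a 4 hr attachment, PR-UAS-bla HEK293T cells in charcoal-stripped FBS medium were exposed to compounds with R5020 for 16 hr; CellTiter-Glo was added and luminescence read after 30 min at room temperature.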

Assay [7] is described as follows: qHTS assay to identify small molecule antagonists of the TGF-beta/Smad signaling pathway - cell viability counter screen (AID 1346824). Also: nearly all actives have a fitted effect of over 50% in size. Put shortly: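 SBE-bla HEK 293T cells, incubated overnight, then compound plus 0.25 ng/mL TGF-beta1 (stock added) for 5 hr at 37 C. Viability was read in the same wells by CellTiter-Glo luminescence after 30 min at room temperature.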
Potency is read from the fitted curve at half-maximal effect.

For `NNc1ccccc1`, the Potency result in assay [1] is “inactive [sample A] and active: 2.43 µM [sample B] and active: 9.69 µM [sample C]”.

Consider `CCOP(=S)(OCC)Oc1cc(C)nc(C(C)C)n1`, for which the Potency entry in assay [2] is “inactive [sample A] and inactive [sample B] and active: 43.6 µM [sample C]”; in assay [3] it was “inactive [sample A] and inactive [sample B] and active: 17.2 µM [sample C]”. For the compound `Clc1cnc(Oc2ccc(Oc3ncc(Cl)cc3Cl)cc2)c(Cl)c1`, the Potency entry in assay [4] was “inactive [sample A] and active: 27.5 µM [sample B]”; in assay [5], “inactive [sample A] and active: 27.5 µM [sample B]”.

Take `CC(C)c1cccc(C(C)C)c1O`: the Potency result in assay [4] is “active: 21.8 µM [sample A] and active: 43.6 µM [sample B] and inactive [sample C]”; in assay [5], “active: 24.5 µM [sample A] and active: 43.6 µM [sample B] and inactive [sample C]”. In the case of `C=CCN=C=S`, the Potency result in assay [6] was “active: 49.6 µM [sample A] and inactive [sample B]”. The same measure, in the same setting: the result for `C=C(C)C(=O)OCC(CC)CCCC` (stereo not given) reads “active: 49.5 µM [sample A] and inactive [sample B]”. On to `CNC(=O)O/N=C/C(C)(C)S(C)=O` (stereo not given), for which, in assay [7], the Potency result is “active: 17.6 µM [sample A] and inactive [sample B]”.
